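A five-concentration, 48-hour dose response in 96-well plates underlies each endpoint, interpolated linearly between surrounding concentrations. GI50 is the concentration that inhibits growth by half.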 Activity calls are given as the source filed them. Cut-off read from the data, not from the text of the source: active = GI50 up to about 1.1 µM and inactive = higher.
test system: NCI-H322M; test: inhibition of tumour cell growth, NCI panel, 48 h

SMILES | GI50
COC(=O)C1C(O)C(C)C(O)C(C)(O)C=C(C)C2=C3C(=C(C)C(=O)c4c(O)c(c(C)c(OC(C)=O)c43)NC(=O)C(C)=C/C=C\C(C)(O)C(O)C(C)C1O)OCO2 (configuration not stated) | inactive: > 100 µM
COC(=O)[C@@]12OC[C@]34C([C@@H](O)C1O)[C@@]1(C)CC(=O)C(O)=C(C)C1C[C@H]3OC(=O)[C@H](OC(=O)/C=C(/c1ccccc1)C(F)(F)F)[C@H]42 (some centres not stated) | inactive: 11.4 µM
COc1ccc2cc1Oc1ccc(cc1)CC1c3cc(OC)c(cc3CCN1C)Oc1c(OC)c(OC)cc3c1C(C2)N(C)CC3 (configuration not stated) | inactive: 21.3 µM
O=C1Nc2ccc(Br)cc2/C1=N/Nc1ccc([N+](=O)[O-])cc1[N+](=O)[O-] | inactive: 10.9 µM
COc1ccc(NC(=S)Nc2cc(C)ccn2)cc1 | inactive: > 100 µM
CC(C)(C)C1=C(Br)C(C(C)(C)C)OP1(=O)O (configuration not stated) | inactive: > 100 µM
C=CCOc1ccccc1/N=N/C(C#N)=N\Nc1ccccc1OCC=C | inactive: > 100 µM
CC(/C=N/N=C1NCCCN1)=N\N=C1NCCCN1 | inactive: > 100 µM
CC(Oc1ccc(Oc2cnc3ccc(Cl)cc3n2)cc1)C(=O)O (configuration not stated) | inactive: > 94.4 µM
N#Cc1c(-c2ccc(Cl)cc2)cc(-c2nc3ccccc3[nH]2)nc1N | inactive: 15.1 µM
N/N=C1N=C(Cl)/C(=C/c2ccco2)N\1 | inactive: 67.8 µM
CN(C)C(=O)Oc1ccc(-c2cn3cc(NC(=O)c4ccccc4)ccc3n2)cc1 | inactive: > 100 µM
N#CC1=C(c2ccccc2)NNC(c2ccc(Cl)cc2)CC1=O (configuration not stated) | inactive: 36.7 µM
COc1cc2noc(-c3ccccc3)c2cc1OC | inactive: > 100 µM
Nc1ccn(C=C=CCO)c(=O)n1 | inactive: > 100 µM
Clc1nc(Cl)c(CBr)c(Cl)n1 | inactive: 16 µM
Cc1c(/C=N/NC(=S)Nc2ccccc2)c(=O)n(-c2ccccc2)n1C | inactive: > 100 µM
Cc1ccc2c(c1)CN1c3ccc(C)cc3CN2C1c1ccccc1O | inactive: > 100 µM
Cc1ccc(S(=O)(=O)N/N=C/C(Br)=C(/Br)C(=O)O)cc1 | inactive: 18.5 µM
CCN1CC2(C)CCC(OC)C34C5CC6CCC(O)(C5C(=O)O6)C(C(O)C23)C14 (configuration not stated) | inactive: > 100 µM
COc1cc(/C=C/c2ccc(O)c(OC)c2)cc(OC)c1 | inactive: 23.9 µM
CCOC(=O)C1=C(C)N(Cc2ccc(Cl)cc2Cl)C2(O)C=CC(=O)C3C(=O)N(c4ccccc4)C(=O)C132 (configuration not stated) | inactive: 3.74 µM
COc1cc2c3c(c1OC)-c1c(ccc4c1OCO4)CC3(C#N)N(C(=O)c1ccccc1)CC2 (configuration not stated) | inactive: > 100 µM

SMILES | GI50
CC(O)C1(CNc2cc(Cl)nc(N)n2)CCCC1 (configuration not stated) | inactive: > 100 µM
COC(=O)c1c(C)[nH]c2c1cc(O)c1nc(C)c(C)nc12 | inactive: 31.2 µM
Cn1c(CO)ccc1-c1ccc(-c2ccc[se]2)[se]1 | inactive: 24.2 µM
Cc1ccc(C(=O)Nc2ccc(CP(=O)(O)O)cc2CP(=O)(O)O)cc1N | inactive: > 100 µM
CCOC(CN(C)C(=S)Nc1cccc2ccccc12)OCC | inactive: > 10 µM
CN(C)c1ccc(/C=N\NC(=O)Nc2cccc3ccccc23)cc1 | inactive: 15.6 µM
Cc1cc2c(=O)c3ccccc3[nH]c2c(C(=O)O)c1C | inactive: > 100 µM
Cc1cc(-c2ccc(C(=O)O)[nH]2)on1 | inactive: 62.8 µM
O=[N+]([O-])C(=C/c1ccccc1)/C(=C\c1ccccc1)[N+](=O)[O-] | inactive: 25.8 µM
C=CCc1cc(OC)c(O)c(C(=O)/C=C/c2ccc(OC)c(OC)c2)c1 | inactive: 15.2 µM
C[n+]1c2ccccc2c(CNC(CS)C(=O)O)c2ccccc21 (configuration not stated) | inactive: 41.9 µM
CCOP(=O)(OCC)c1ccc(=O)[nH]c1-c1cccs1 | inactive: > 100 µM
Oc1cc(-c2ccc3ccccc3c2)nc2ncccc12 | inactive: 19 µM
CN(C)CCCNc1ccnc2cc([N+](=O)[O-])ccc12 | inactive: 12.1 µM
COc1ccc(N2C(=O)C(C)SC2c2cc3cc(Br)ccc3nc2Cl)cc1 (configuration not stated) | inactive: 33.4 µM
OCC1OC(c2n[nH]c3c(O)ncnc23)C(O)C1O (configuration not stated) | inactive: 20.2 µM
CC(NC(=O)C(C)C(=O)NCc1ccc(C(F)(F)F)cc1)C(N)=O (configuration not stated) | inactive: > 100 µM
CC1=NN(c2nc(N)nc(-c3ccccc3S(N)(=O)=O)n2)C(C)(C)C1 | inactive: 18.9 µM
Cc1ccc(-c2c(C#N)c(O)n(NS(=O)(=O)c3ccccc3)c(=O)c2C#N)cc1 | inactive: > 100 µM
Oc1cc(-c2ccccc2)c2ccccc2n1 | inactive: 48.5 µM
Clc1ccc(-c2nc3cc(C45CC6CC(CC(C6)C4)C5)ccc3[nH]2)cc1 | inactive: 77.3 µM
CN(C)c1ccc(C=C2C(=O)N(c3ccccc3)N(c3ccccc3)C2=O)cc1 | inactive: > 100 µM
O=C(O)Cn1ccc(=O)c2ccc([N+](=O)[O-])cc21 | inactive: > 100 µM

SMILES | GI50
CCN(CC)CCCNC(=O)Cc1ccccc1Nc1c(Cl)cccc1Cl | inactive: 15 µM
O=C(O)c1cccc(OCCO)c1 | inactive: > 100 µM
CCOC(=O)CCCO | inactive: > 100 µM
COCOCCC#CCO | inactive: > 100 µM
O=C(O)c1cccc(S(=O)(=O)NCCO)c1 | inactive: > 100 µM
CC(=O)Nc1ccc2c(c1)nc1c3ccccc3ccn21 | inactive: > 100 µM
CN(C)c1ccc(C(C=C2c3ccccc3Sc3ccccc32)=C(C#N)C#N)cc1 | inactive: 82.4 µM
O=C(O)CCCSc1nc2ccccc2s1 | inactive: > 100 µM
O=c1c(Cl)c(Cl)cnn1CCCl | inactive: 9.35 µM
CC(C)C(Nc1c2ccccc2[n+]([O-])c2ccccc12)C(=O)O (configuration not stated) | inactive: > 100 µM
COC(=O)c1c(C(=O)OC)c2ccc(-c3ccc(Cl)cc3)nn2c1C(=O)c1ccc([N+](=O)[O-])cc1 | inactive: > 100 µM
CCC12CCC(O)C1N(C)CCC2Sc1ccccc1 (configuration not stated) | inactive: > 100 µM
COc1ccc(/C=C/C(=O)c2cc(OC)cc(OC)c2)cc1 | inactive: 5.98 µM
N#CC(C#N)/N=N/c1ccc(-c2nc3ccccc3[nH]2)cc1 | inactive: > 100 µM
O=C1N/C(=N/N=C/C(O)C(O)C(O)C(O)CO)N/C1=C\c1cccs1 (configuration not stated) | inactive: > 100 µM
NC1=CN(CCCO)C2=N/C(=C\c3ccco3)C(=O)N12 | inactive: > 100 µM
Cc1cc2cc(Cl)ccc2nc1C(=O)c1ccccc1 | inactive: > 100 µM
O=C(O)[C@@H]1C2CC([C@@H]1C(=O)O)[C@H](N1C(=O)CCC1=O)[C@@H]2Br (some centres not stated) | inactive: > 100 µM
COc1ccc(/C=C/c2nsc(/C=C/c3ccc(OC)cc3)n2)cc1 | inactive: > 100 µM
N#CC(Nc1ccccc1)c1ccc(C(C#N)Nc2ccccc2)cc1 (configuration not stated) | inactive: > 100 µM
COC(=O)[C@]1(C)CC[C@]2(C)CC[C@]3(C)C4[C@H]5Oc6c(cc7c(c6C)CCC6[C@@]7(C)CC[C@@]7(C)C8[C@](C)(CCC[C@@]8(C)C(=O)OC)CC[C@]67C)O[C@H]5c5c(cc6c(c5C)O[C@@]5(C)C7=CC=C8[C@@](C)(CC[C@@]9(C)[C@@H]%10C[C@](C)(C(=O)OC)CC[C@]%10(C)CC[C@]89C)C7=CC(=O)[C@@]5(O)O6)[C@]4(C)CC[C@@]3(C)C2C1 (some centres not stated) | inactive: > 12.5 µM
CC(=O)Nc1ccc(Cc2ccc3nc(O)cc(C)c3c2)cc1 | inactive: 48 µM
COc1cc2c3c(c1OC)C(=O)C(=O)C1=C3N(CCC1)CC2 | inactive: 34.4 µM

SMILES | GI50
CN1CCN(c2ccc3nc(C4=C(O)C(=O)c5c(nc(CCl)n5C)C4=O)[nH]c3n2)CC1 | inactive: 18.6 µM
Cc1ccc(C(=O)C2=CN=C3C(=O)N(c4ccccc4)N(C)C3(C)C2=N)cc1 (configuration not stated) | inactive: > 100 µM
c1cc2ccc1C1NCCCN1CCN1CCCNC1c1ccc(cc1)C1NCCCN1CCN1CCCNC21 (configuration not stated) | inactive: > 100 µM
O=C1C(=CNc2ccccc2Cl)C(=O)N(c2ccccc2)C(=O)N1c1ccccc1 | inactive: > 100 µM
CN(C)CCNc1ncnc2nc(-c3ccccc3)c(-c3ccccc3)nc12 | inactive: > 100 µM
COc1cc2cc(C(=O)N3CC(CCl)c4ccc(NCCN)cc43)[nH]c2c(OC)c1OC (configuration not stated) | active: 0.324 µM
CC(C)(C)c1cc(C(=O)/C=C/c2ccc(O)c(O)c2O)cc(C(C)(C)C)c1O | inactive: 3.49 µM
NC(=O)c1csc(C2C=CC(CO)O2)n1 (configuration not stated) | inactive: > 100 µM
CC1(C)[C@@H]2CC[C@]1(C)[C@H](OC(=O)/C=C/c1ccccc1)C2 | inactive: 21.4 µM
Oc1cc(-c2c[nH]c3ccccc23)nc2cc3c(cc12)OCO3 | inactive: > 100 µM
[C-]#[N+][C@@H]1C2[C@H](CC[C@@]1(C)O)C(=C)CC[C@@H]2[C@@]1(C)CC[C@H](Cl)C(C)(C)O1 (some centres not stated) | inactive: 7.62 µM
O=S(=O)(O)c1ccc(/N=N\c2ccc(/N=N\c3ccc(/C=C/c4ccc(/N=[N+](/[O-])c5ccc(/C=C/c6ccc(/N=N/c7ccc(/N=N\c8ccc(S(=O)(=O)O)cc8)cc7)cc6S(=O)(=O)O)c(S(=O)(=O)O)c5)cc4S(=O)(=O)O)c(S(=O)(=O)O)c3)cc2)cc1 | inactive: > 100 µM
O=C1c2ccccc2C(=O)c2[nH]c(=O)c(/C=N/Nc3ccc([N+](=O)[O-])cc3)nc21 | inactive: 1.72 µM
N#Cc1c(-c2ccccc2)cc(Nc2cccc(C(F)(F)F)c2)n2c1nc1ccccc12 | inactive: 1.92 µM
O=C(NN1C(=O)C(Cl)C1c1cccc(Cl)c1)c1ccccc1O (configuration not stated) | inactive: > 100 µM
CCCc1cc(=O)oc2c3c(c4c(c12)OC(C)(C)C=C4)O[C@@H](C)[C@H](C)C3=O | inactive: 13.8 µM
CNC(=O)OCc1c2ccncc2c(C)c2c1[nH]c1ccccc12 | active: 0.267 µM
Cn1c(SCc2ccc([N+](=O)[O-])cc2)nnc1C12CC3CC(CC(C3)C1)C2 | inactive: > 10 µM
COc1ccc(O)cc1 [MEQUINOL] | inactive: > 100 µM
Oc1ccc(NCn2c(=S)sc3ccccc32)cc1 | inactive: > 100 µM
Cc1ccc(C(=O)O)c(CC2Cc3c(C)cccc3C2=O)c1 (configuration not stated) | inactive: > 100 µM
O=C(Nc1ccc(Cl)cc1)NS(=O)(=O)c1coc2ccccc2c1=O | inactive: > 10 µM
OC/C=C/[C@H](OCc1ccccc1)[C@H](/C=C/CO)OCc1ccccc1 | inactive: 69.2 µM

— ChEMBL document CHEMBL1201862, “PubChem BioAssay data set” (2004)
